Results taken from PubChem BioAssay (NCATS).
The shares of active, inactive and inconclusive entries below differ from those in the screen. No potency is given beside an inconclusive call; the fits are too rough. The source made the active and inactive calls. Calls follow the shape of the dose curve; as a rule, active = well fitted inhibition curve with a large enough effect; inconclusive = small, poorly fitted or top-dose-only effect; inactive = flat fitted curve, though single readings scatter. Non-standard residues stand in square brackets, D forms with d. Residues, ends and D or L forms follow the SMILES beside them. *: point of attachment. Dolaproine = CO[C@@H]([C@@H]1CCCN1)[C@@H](C)C(=O)O; Dil = CC[C@H](C)[C@H](NC)[C@@H](CC(=O)O)OC; Doe = c1ccc(C[C@H](N*)c2nccs2)cc1; Aib = CC(C)(N)C(=O)O

Target: Aldehyde dehydrogenase, mitochondrial (Homo sapiens) (UniProt P05091)
Assay: qHTS for Inhibitors of the Aldehyde Dehydrogenase Family (ALDH2) Primary screen (AID 2061308); also: nearly all actives have a fitted effect of over 55% in size
Conditions: ALDH2 enzyme inhibition qHTS, 1536-well; series mostly up to 56 µM
Potency is read from the fitted curve at half-maximal effect; tags tell the direction and shape of the fitted curve.

Q: How did the Potency turn out when `CCOC(=O)Nc1ccc(NCc2c(C)cc(C)cc2C)cc1N` was run?
A: The Potency was inconclusive [inhibitor, partial curve, poor fit].

Q: Which Potency does the source give for `CC[C@H](C)[C@@H]([C@@H](CC(=O)N1CCC[C@H]1[C@H](OC)[C@@H](C)C(=O)N[C@@H](Cc1ccccc1)c1nccs1)OC)N(C)C(=O)[C@@H](NC(=O)C(C)(C)N)C(C)C` (H-[Aib]V[Dil][Dolaproine]-Doe) here?
A: The Potency was “inactive”.

Q: `CC(=O)O[C@@H]1[C@@H](O)[C@H]2O[C@@H]3C=C(C)[C@@H](O)C[C@]3(CO)[C@]1(C)[C@]21CO1` was tested. Which Potency did it give?
A: Its Potency is “inactive”.

Q: With `Cc1sc2c(c1C)C(c1ccc(Cl)cc1)=N[C@@H](CC(=O)Nc1ccc(O)cc1)c1nnc(C)n1-2` as the compound, how does the Potency read?
A: Its Potency is “inactive”.

Q: With `CN1CCN(c2ccc([N+](=O)[O-])c3no[n+]([O-])c23)CC1` as the compound, how does the Potency read?
A: Its Potency is inconclusive [inhibitor, partial curve, poor fit].

Q: How did the Potency turn out when `CC(=O)OC[C@]12C[C@H](OC(=O)CC(C)C)C(C)=C[C@H]1O[C@@H]1[C@H](O)[C@@H](OC(C)=O)[C@@]2(C)[C@@]12CO2` was run?
A: Its Potency is “inactive”.

Q: `COc1ccccc1CN[C@H]1C2CCN(CC2)[C@H]1C(c1ccccc1)c1ccccc1` was tested. Which Potency did it give?
A: The Potency was “inactive”.

Q: `CNc1ccc2oc(C[C@H]3O[C@@]4(CC[C@H]3C)O[C@H](C(C)C(=O)c3ccc[nH]3)[C@H](C)C[C@H]4C)nc2c1C(=O)O` (some centres undefined) was tested. Which Potency did it give?
A: Its Potency is inconclusive [inhibitor, partial curve, poor fit].

Q: Which Potency does the source give for `CC(=O)O[C@H]1C(=O)[C@]2(C)C(O)C[C@H]3OC[C@@]3(OC(C)=O)[C@H]2[C@H](OC(=O)c2ccccc2)[C@]2(O)C[C@H](O)C(C)=C1C2(C)C` (some centres undefined) here?
A: Its Potency is “inactive”.
